About 14,000 (4.5%) of roughly 310,000 compounds showed an effect of 50% or more. Effects have a minus sign here. The list shows a part of the results.
What follows are compounds tested against human ether-à-go-go-related gene (hERG) potassium channel (human, UniProt Q12809) (assay: primary screen, population patch clamp on CHO cells stably expressing hERG).
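Also: peak tail current of the secondary pulse compared with the same well before compound.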

human ether-à-go-go-related gene (hERG) potassium channel, sequence (Q12809 whole entry, looked up): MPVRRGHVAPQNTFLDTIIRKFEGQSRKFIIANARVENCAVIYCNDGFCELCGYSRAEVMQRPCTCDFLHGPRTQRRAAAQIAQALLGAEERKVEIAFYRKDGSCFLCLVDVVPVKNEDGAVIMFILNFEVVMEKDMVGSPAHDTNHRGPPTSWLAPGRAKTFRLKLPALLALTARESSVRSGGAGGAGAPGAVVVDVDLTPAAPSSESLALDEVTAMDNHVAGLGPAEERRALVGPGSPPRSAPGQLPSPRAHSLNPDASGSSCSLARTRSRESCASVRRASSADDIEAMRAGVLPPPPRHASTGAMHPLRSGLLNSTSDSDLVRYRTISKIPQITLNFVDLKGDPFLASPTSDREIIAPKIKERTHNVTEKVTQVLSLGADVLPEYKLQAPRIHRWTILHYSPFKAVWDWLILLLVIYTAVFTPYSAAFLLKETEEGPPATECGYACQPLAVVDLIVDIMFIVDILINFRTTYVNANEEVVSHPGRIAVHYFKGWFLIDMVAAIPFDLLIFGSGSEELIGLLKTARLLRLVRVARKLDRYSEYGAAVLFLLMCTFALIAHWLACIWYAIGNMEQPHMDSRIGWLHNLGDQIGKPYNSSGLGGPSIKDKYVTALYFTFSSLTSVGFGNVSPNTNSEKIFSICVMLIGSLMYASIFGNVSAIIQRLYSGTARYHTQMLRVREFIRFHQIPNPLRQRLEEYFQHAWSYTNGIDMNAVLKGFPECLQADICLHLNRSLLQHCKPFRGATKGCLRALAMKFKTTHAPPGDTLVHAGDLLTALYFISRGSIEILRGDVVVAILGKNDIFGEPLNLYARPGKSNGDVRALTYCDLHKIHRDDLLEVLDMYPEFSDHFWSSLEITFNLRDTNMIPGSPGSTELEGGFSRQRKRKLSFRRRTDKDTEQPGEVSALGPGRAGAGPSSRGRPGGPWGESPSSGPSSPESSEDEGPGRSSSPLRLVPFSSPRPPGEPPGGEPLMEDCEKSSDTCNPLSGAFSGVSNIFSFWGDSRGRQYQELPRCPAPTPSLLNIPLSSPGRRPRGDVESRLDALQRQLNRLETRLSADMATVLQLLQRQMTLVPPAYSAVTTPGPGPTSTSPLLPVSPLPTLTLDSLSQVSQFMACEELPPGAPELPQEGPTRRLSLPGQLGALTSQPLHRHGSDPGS

Row | SMILES | hERG current change (%, negative = inhibition) at 10uM
1 | Cc1ccc(/C=N/N2CCCCC2)o1 | 34.4%
2 | CC1=C(C#N)C(NC(=O)c2ccc(Cl)cc2)(C(F)(F)F)C(=O)N1 (stereo not shown) | -6.82%
3 | O=C1COc2ccc(C(=O)COC(=O)Cc3ccccc3)cc2N1 | -13%
4 | O=C(O)c1ccc(-c2ccco2)n1Cc1ccccc1 | 7.82%
5 | COCCOc1ccc(C(F)(F)F)cc1NC(=O)c1ccc(F)cc1 | 3.33%
6 | COc1ccc(Cl)cc1NC(=O)CN1CCN(Cc2ccccc2)CC1 | -68.9%
7 | Cn1nc(C(=O)N2CCCC2)c2ccccc2c1=O | 23%
8 | CCOC(=O)c1c(-c2cccs2)csc1NC(=O)CN1CC(C)OC(C)C1 (stereo not shown) | -0.145%
9 | CC(NC(=O)c1ccccc1C(=O)O)c1ccc(-n2ccnc2)cc1 (stereo not shown) | 16%
10 | CC1(C)C(C#N)=C(N)Oc2c1c(=O)oc1ccccc21 | 0.829%
11 | CCOC(=O)C1CCCN(c2c(NCCN(CC)c3ccccc3)c(=O)c2=O)C1 (stereo not shown) | -14.8%
12 | Cc1cc(C(F)(F)F)c2sc(N)nc2n1 | 5.61%
13 | Cc1ccc(CN2CCCN(Cc3cc(C)ccc3C)S2(=O)=O)cc1 | 7.27%
14 | CCOC(=O)c1ccc(NC(=O)CN2C(=O)C(=O)N(CC(C)C)C2=O)cc1 | 3.66%
15 | COc1ccc2c(c1)[n+](=O)c(C(C)=O)c(C)n2[O-] | 6.81%
16 | CC(C)(C)NC(=O)NC(=O)COC(=O)c1nc(-c2ccccc2)n(-c2cccc(C(F)(F)F)c2)n1 | -2.43%
17 | COc1ccc(NC(=O)N2CCCC2C(=O)NCc2cccs2)cc1 (stereo not shown) | 9.81%
18 | O=S1(=O)CC2(N3CCOCC3)CCCCCCC21 (stereo not shown) | -19.8%
19 | CN(C)S(=O)(=O)c1cccc(NC(=O)COC(=O)/C=C/c2ccc(Br)o2)c1 | -25.9%
20 | Cc1ccc2oc(=O)c3cnn(CC(=O)Nc4ccccc4N4CCN(C)CC4)c3c2c1 | -11%
21 | O=[N+]([O-])c1ccccc1NCCOc1ccccc1 | 5.3%
22 | CCc1nnc(NC(=O)C2=NN(C3CCS(=O)(=O)C3)C(=O)CC2)s1 (stereo not shown) | 31.1%
23 | COc1cc(C)ccc1OCCOCCOc1ccc(C)cc1[N+](=O)[O-] | -36.1%

Row | SMILES | hERG current change (%, negative = inhibition) at 10uM
24 | O=C(Oc1nsnc1N1CCOCC1)N(c1ccccc1)c1ccccc1 | -32.5%
25 | Cc1cc(C(=O)NCc2cccs2)nn1C | 9.53%
26 | CCCCNC(=S)NCCN1CCN(C(=S)NCCCC)CC1.Cl | -8.2%
27 | O=C(O)c1cc(NS(=O)(=O)c2cccs2)cc(NS(=O)(=O)c2cccs2)c1 | 0.184%
28 | CN1CCN(S(=O)(=O)c2ccc(NC(=O)c3cccs3)cc2)CC1 | -11.3%
29 | Cc1cccc(C)c1NC(=O)CCCn1nc(C)c2c(C)n(-c3ccccc3)nc2c1=O | 3.28%
30 | O=C(O)c1[nH]c2ccccc2c1CC(=O)N1CCOCC1 | -1.46%
31 | CCOc1ccc(C2c3c(oc4ccccc4c3=O)C(=O)N2CCCN2CCOCC2)cc1OCC (stereo not shown) | 1.66%
32 | CCc1ccc(/C=C(\Cl)c2nc3cc(Cl)ccc3c(=O)[nH]2)cc1 | 20.5%
33 | Cc1cc(NS(=O)(=O)Cc2ccccc2)cc(C)c1OCC(=O)N1CCOCC1 | -0.529%
34 | Cn1c(SCC(=O)Nc2ccc3nc(SCC(=O)N4CCCC4)sc3c2)nnc1-c1ccccc1 | 8.67%
35 | CN(CCN1CCOCC1)C(=O)CC1C(=O)NCCN1Cc1ccccc1C(F)(F)F (stereo not shown) | 11.7%
36 | Cc1nn(-c2ccccc2)c(C)c1NC(=O)COc1ccc([N+](=O)[O-])cc1 | -69.4%
37 | O=C(/C=C/Nc1ccc(F)cc1F)c1ccc(Br)cc1 | 19.4%
38 | CC(C)N1CCN(CC2COc3ccccc3O2)CC1.Cl (stereo not shown) | -19.4%
39 | CNC(=O)NC(=O)CN1C(=O)NC2(CCOc3ccccc32)C1=O (stereo not shown) | 18.9%
40 | O=C(CN1C(=O)C2(OCCO2)c2ccccc21)c1ccc(Cl)cc1 | -26%
41 | COc1ccc(N2CCN(C(=O)c3ccc(NS(=O)(=O)c4cccc(F)c4)cc3)CC2)cc1 | -29.8%
42 | COCCCN(C(=O)Nc1cccc(Cl)c1)C(C)c1ccccn1 (stereo not shown) | 3.29%
43 | CCC1(C)COC(C)(CC(=O)NNC(=O)Nc2ccccc2)OC1 (stereo not shown) | 15.3%
44 | CCOCCCNC(=S)Nc1ccc2nc(N3CCOCC3)cc(C)c2c1 | -7.68%
45 | CCOC(=O)c1ccc(OC)c(OC)c1Cl | 16.4%
46 | COc1cc(Br)c(Br)c(Br)c1N | 6.99%

Row | SMILES | hERG current change (%, negative = inhibition) at 10uM
47 | CCOc1ccc(C(OC(=O)c2ccco2)C(=O)NCc2ccc(C)cc2)cc1 (stereo not shown) | 10.4%
48 | Cc1cc(C(=O)NNC(=O)c2cccc([N+](=O)[O-])c2)n[nH]1 | 18.9%
49 | COc1ccc(NC(=O)CN2CCN(c3ccc(F)cc3)CC2)cc1 | -4.62%
50 | Cc1cc(C)cc(NC(=O)C(OC(=O)c2ccc(O)cc2)c2ccccc2)c1 (stereo not shown) | -15.2%
51 | O=C(O)CC(CNC(=O)C1CCCN1C(=O)OCc1ccccc1)c1ccccc1 (stereo not shown) | 16.3%
52 | CCOc1ccc(Cn2nnc(C(=O)NCCc3ccccc3)c2N)cc1 | 2.1%
53 | CCOC(=O)Cn1c(=O)c2c(nc3n2CC(C)CN3Cc2ccccc2)n(C)c1=O (stereo not shown) | -44.4%
54 | CC(C)Cc1[nH]c(=O)c(C#N)c2c1CCCC2 | -3.79%
55 | CC(=O)C1CCCN(C(=O)c2ccc3nc(Cc4cccc(Cl)c4)oc3c2)C1 (stereo not shown) | -10.4%
56 | O=C(NCCN1CCCCC1)c1cc(Cl)ccc1Cl | 1.65%
57 | CCN(CC(=O)Nc1ccc(C(=O)OC)cc1)Cc1ccccc1.O=C(O)C(=O)O | -3.03%
58 | Cc1oc(-c2ccc(Cl)cc2)nc1CSCC(=O)NC1CCN(Cc2ccccc2)CC1 | -73.1%
59 | C=CCn1c(SCc2ccc(C(=O)Nc3nccs3)cc2)nnc1-c1ccc(C)c(Cl)c1 | -2.77%
60 | O=C(CN1C(=O)C(=O)c2ccccc21)c1ccc(Cl)cc1 | 7.41%
61 | CCc1cc2c(CN(C)Cc3ccccc3F)cc(=O)oc2cc1O | 8.45%
62 | Cc1cc(F)ccc1S(=O)(=O)N1CCCOC1CNC(=O)C(=O)NCCc1ccccc1 (stereo not shown) | -19.1%
63 | Cc1ccc(-c2nc3ccccn3c2C=O)cc1 | 3.26%
64 | Cc1ccc(NCc2nc3ccccc3n2C)cc1C | 6.28%
65 | O=C(Cc1ccccc1)NCC(=O)OCC(=O)c1ccc(Cl)c([N+](=O)[O-])c1 | -2.74%
66 | COc1ccc(C(=O)N/C(=C/c2ccc(Cl)cc2)C(=O)NCc2ccncc2)cc1 | -65.4%
67 | CN1CCN(c2nc([N+](=O)[O-])nn2C)CC1 | 4.26%
68 | COc1ccc2cc(C3=CCCCC3)ncc2c1 | -0.981%
69 | Cc1ccc([N+](=O)[O-])c2c1C(N1CCCCC1)C(C)(C)O2 (stereo not shown) | -17.7%

Row | SMILES | hERG current change (%, negative = inhibition) at 10uM
70 | O=C(C#Cc1ccccc1)Nc1ccccc1F | 0.842%
71 | CCCC(c1nnnn1CCc1ccccc1)N1CCN(C2CCCC2)CC1 (stereo not shown) | -48.9%
72 | CC(=O)/C(=N\Nc1ccc(C)cc1)Sc1nncn1C | -12.8%
73 | CCc1nc(C)ccc1OCC(=O)O.Cl | -3.86%
74 | Cc1nc[nH]c(=O)c1Br | 11.6%
75 | Cc1cccc(NS(=O)(=O)c2c(C(=O)N3CCCC3)c(C)n(C)c2C)c1 | 18.1%
76 | COc1cccc(NC(=O)CN(C)C(C)C(=O)N2CCCC2)c1 (stereo not shown) | -9.5%
77 | COc1cc(/C=C/C(=O)OCN2C(=O)c3ccccc3C2=O)ccc1OC(F)F | 13.3%
78 | O=C(Nc1ccccc1Cl)c1cc(=O)c2ccccc2o1 | 13.1%
79 | CC(=O)OC1N=C(c2ccccc2Cl)c2cc(Br)ccc2NC1=O (stereo not shown) | -40.3%
80 | CN(C)c1ccc(CNn2cnnc2)cc1 | -10.3%
81 | CCC(=O)Nc1nc(C)c(-c2csc(Nc3cccc(C(=O)O)c3)n2)s1 | 0.236%
82 | CCc1cc2cc(C)ccc2nc1SCC(=O)N1CCN(C(=O)c2ccco2)CC1 | -53.4%
83 | CCOC(=O)c1nnn(-c2nc(N(C)C)nc(N(C)C)n2)c1C | 14.1%
84 | Cn1cnc([N+](=O)[O-])c1SCC(O)CCl (stereo not shown) | 15.9%
85 | Cc1ccc(CCC(=O)Nc2ccc(S(N)(=O)=O)cc2)o1 | 10.2%
86 | COc1cccc(/C=N/NC(=O)CCc2c(C)n[nH]c2C)c1 | 23%
87 | O=C(COC(=O)c1ccc(O)cc1O)NC12CC3CC(CC(C3)C1)C2 | -5.6%
88 | CCCCN1C(=O)c2ccc(C(=O)Nc3ccc(S(=O)(=O)N(C)C)cc3)cc2C1=O | -0.448%
89 | Cn1nnc(NC(=O)c2cccs2)n1 | -7.13%
90 | CCCCN(C)C(=O)C1CCN(CCCc2ccccc2)CC1.O=C(O)C(=O)O | -73.4%
91 | O=C(Nc1ccccc1N1CCN(C(=O)c2ccc(Cl)cc2)CC1)c1cccc(F)c1 | -78.9%

Reference: publication PMC4336329 (PLoS ONE, 2015)
